From the supplement of paper PMC10369915
Some of the results follow. Rule as the data show it: active = 3.2 or more and inactive = the rest. Most of these values are background signal.

Experiments:
Assay in all cases: enrichment score (SH2-bound / input frequency) (ratio); bacterial display of known human phosphotyrosine sites (pTyr-Var adds point mutants) read by sequencing; higher = stronger binding; tyrosines were phosphorylated by kinases first
Conditions in all cases: peptide library: pTyr-Var
SHP2 C-SH2 domain E139D = target: SHP2 C-SH2 domain E139D
[1] = target: SHP2 C-SH2 domain wild-type
SHP2 N-SH2 domain L43F = target: SHP2 N-SH2 domain L43F
SHP2 N-SH2 domain T42A = target: SHP2 N-SH2 domain T42A
SHP2 N-SH2 domain T52S = target: SHP2 N-SH2 domain T52S
[2] = target: SHP2 N-SH2 domain wild-type
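Also: displayed peptides selected on beads carrying the immobilized SH2 domain, with library peptides lacking any tyrosine serving as negative controls.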

| Binder | enrichment score (SHP2 C-SH2 domain E139D) | enrichment score [1] | enrichment score (SHP2 N-SH2 domain L43F) | enrichment score (SHP2 N-SH2 domain T42A) | enrichment score (SHP2 N-SH2 domain T52S) | enrichment score [2] |
| --- | --- | --- | --- | --- | --- | --- |
| PSSRDYKDNIK [PIGN_Y227_H229D] | inactive: 0.271 | inactive: 0.269 | inactive: 0.455 | inactive: 0.313 | inactive: 0.469 | inactive: 0.352 |
| VRTGIYHGGKP [PIK3CA_Y361_E365K] | inactive: 1.04 | inactive: 0.951 | inactive: 0.972 | inactive: 1.02 | inactive: 1.01 | inactive: 1.07 |
| DIDKIYVRTGI [PIK3CA_Y355] | inactive: 0.701 | inactive: 0.847 | inactive: 0.871 | inactive: 0.694 | inactive: 0.877 | inactive: 0.863 |
| KGSLPYSLILD [PKD1L2_Y406_N407S] | inactive: 1.36 | inactive: 2.7 | inactive: 1.37 | inactive: 1.92 | inactive: 1.32 | inactive: 1.52 |
| EYDRLYEEYTR [PIK3R1_Y467] | inactive: 1.18 | inactive: 1.27 | inactive: 1.01 | inactive: 0.797 | inactive: 0.995 | inactive: 1.16 |
| DKEKWYPLGTS [PIK3C2G_Y1438_N1442T] | inactive: 0.887 | inactive: 0.745 | inactive: 0.902 | inactive: 0.782 | inactive: 0.993 | inactive: 0.843 |
| YTHSDYQYSQR [PKP2_Y166] | inactive: 0.627 | inactive: 0.484 | inactive: 0.593 | inactive: 0.532 | inactive: 0.534 | inactive: 0.542 |
| QDLLLYQTHSE [PKHD1_Y255_F253L] | inactive: 1.07 | inactive: 1.11 | inactive: 0.861 | inactive: 0.922 | inactive: 0.979 | inactive: 1.27 |
| LGGAMYYLEAE [PKHD1_Y452] | inactive: 1.19 | inactive: 1.07 | inactive: 1.32 | inactive: 1.33 | inactive: 1.43 | inactive: 1.1 |
| PDNKPYIFKVF [PIK3AP1_Y553_E551K] | inactive: 1.06 | inactive: 1.03 | inactive: 0.83 | inactive: 0.981 | inactive: 0.836 | inactive: 0.857 |
| DFTSRYLSASD [PKHD1_Y828_N830S] | inactive: 0.747 | inactive: 0.674 | inactive: 0.735 | inactive: 0.574 | inactive: 0.809 | inactive: 0.754 |
| RRFSSYSQMEN [PKP1_Y120] | inactive: 0.23 | inactive: 0.242 | inactive: 0.256 | inactive: 0.247 | inactive: 0.352 | inactive: 0.345 |
| LGGAMYYLEAD [PKHD1_Y452_E457D] | inactive: 1.32 | inactive: 1.27 | inactive: 1.33 | inactive: 1.19 | inactive: 1.13 | inactive: 1.58 |
| VGIMLYGVDSR [PKD1_Y3143] | inactive: 1.01 | inactive: 1.2 | inactive: 1.25 | inactive: 0.917 | inactive: 1.02 | inactive: 1.35 |
| TKQLTYEEQYL [PIK3C3_Y310_D314Y] | inactive: 0.777 | inactive: 0.647 | inactive: 0.805 | inactive: 0.641 | inactive: 0.718 | inactive: 0.737 |
| VGGRIYTDDGL [PKLR_Y218_I219T] | inactive: 0.81 | inactive: 0.819 | inactive: 0.724 | inactive: 0.746 | inactive: 0.684 | inactive: 0.761 |
| HVEAVYIDIAD [PITPNA_Y140] | inactive: 0.789 | inactive: 0.675 | inactive: 0.712 | inactive: 0.762 | inactive: 0.847 | inactive: 0.748 |
| KKLHKYNTQFQ [PIK3R1_Y452_E451K] | active: 3.22 | inactive: 2.55 | inactive: 2.26 | inactive: 1.92 | inactive: 2.45 | inactive: 2.41 |
| LHNLSYQLEAE [PKP2_Y616] | inactive: 1.49 | inactive: 1.27 | inactive: 1.09 | inactive: 0.944 | inactive: 1.09 | inactive: 1.08 |

| Binder | enrichment score (SHP2 C-SH2 domain E139D) | enrichment score [1] | enrichment score (SHP2 N-SH2 domain L43F) | enrichment score (SHP2 N-SH2 domain T42A) | enrichment score (SHP2 N-SH2 domain T52S) | enrichment score [2] |
| --- | --- | --- | --- | --- | --- | --- |
| VVIMLYGVDSR [PKD1_Y3143_G3139V] | inactive: 1.67 | inactive: 2 | inactive: 1.44 | inactive: 1.35 | inactive: 1.5 | inactive: 1.86 |
| EESREYDRLFE [PIK3R1_Y463_K459E_YF] | inactive: 0.643 | inactive: 0.753 | inactive: 0.475 | inactive: 0.731 | inactive: 0.681 | inactive: 0.619 |
| LGGAMYFLEAE [PKHD1_Y452_YF] | inactive: 1.74 | inactive: 1.33 | inactive: 1.38 | inactive: 1.54 | inactive: 1.44 | inactive: 1.38 |
| EKSREYDRLYE [PIK3R1_Y463] | inactive: 0.598 | inactive: 0.749 | inactive: 0.554 | inactive: 0.749 | inactive: 0.563 | inactive: 0.7 |
| SEPDLYCDPRG [PKP1_Y160] | inactive: 0.748 | inactive: 0.587 | inactive: 0.609 | inactive: 0.599 | inactive: 0.617 | inactive: 0.829 |
| FDDIAYIRKAL [PIK3CA_Y1021_T1025A] | inactive: 0.992 | inactive: 0.695 | inactive: 0.746 | inactive: 0.719 | inactive: 1.03 | inactive: 0.81 |
| VRTGIYHGREP [PIK3CA_Y361_G364R] | inactive: 0.9 | inactive: 0.814 | inactive: 0.89 | inactive: 0.794 | inactive: 0.919 | inactive: 0.909 |
| GPGSGYTNIMR [PKLR_Y564_R559G] | inactive: 1.15 | inactive: 1.97 | inactive: 0.908 | inactive: 1.28 | inactive: 0.907 | inactive: 0.918 |
| QEALEYFMKQV [PIK3CA_Y1038_M1043V] | inactive: 1.2 | inactive: 1.33 | inactive: 1.15 | inactive: 1.28 | inactive: 1.07 | inactive: 1.37 |
| TKQLTYEEQFL [PIK3C3_Y310_D314Y_YF] | inactive: 0.76 | inactive: 0.704 | inactive: 0.735 | inactive: 1.02 | inactive: 0.681 | inactive: 0.828 |
| RHFSSYSQMEN [PKP1_Y120_R116H] | inactive: 1.03 | inactive: 0.93 | inactive: 0.91 | inactive: 1.14 | inactive: 0.851 | inactive: 1.11 |
| VRTGIYHGGEP [PIK3CA_Y361] | inactive: 0.677 | inactive: 0.685 | inactive: 0.675 | inactive: 0.622 | inactive: 0.778 | inactive: 0.741 |
| RPGSGYTNIMR [PKLR_Y564] | inactive: 0.627 | inactive: 0.596 | inactive: 0.52 | inactive: 0.556 | inactive: 0.694 | inactive: 0.597 |
| KGSLPYNLILD [PKD1L2_Y406] | inactive: 0.965 | inactive: 1.05 | inactive: 1.01 | inactive: 0.85 | inactive: 0.999 | inactive: 0.995 |
| QDLFLYQTHSE [PKHD1_Y255] | inactive: 1.05 | inactive: 0.931 | inactive: 0.828 | inactive: 0.661 | inactive: 0.946 | inactive: 0.888 |
| DIDKIYIRTGI [PIK3CA_Y355_V356I] | inactive: 0.766 | inactive: 0.791 | inactive: 0.682 | inactive: 0.919 | inactive: 0.599 | inactive: 0.585 |
| DKEKWYPLGNS [PIK3C2G_Y1438] | inactive: 0.881 | inactive: 0.932 | inactive: 1.06 | inactive: 0.769 | inactive: 0.949 | inactive: 1.28 |
| DFTSRYLNASD [PKHD1_Y828] | inactive: 0.845 | inactive: 0.827 | inactive: 1.09 | inactive: 0.833 | inactive: 0.897 | inactive: 1.01 |
